# Several values for one entry are separate records, joined by “and”; a condition that tells them apart may be missing. Equal entries are not always repeated. The shares of active, inactive and inconclusive entries below differ from those in the screen. For some assays here: Potencies of inconclusive entries are doubtful fits and often do not repeat. Activity calls are given as the source filed them. Unless noted, calls come from the whole dose curve; as a rule, active = well fitted curve in the direction sought with a large enough effect; inconclusive = small, poorly fitted or top-dose-only effect, or another doubt; inactive = no such curve, though single readings can be large; an effect the other way counts as inactive or inconclusive.
# How the values were obtained:
# [1] = qHTS Screen of the MIPE 4.0 Collection Against Ewings Sarcoma (RDES) (AID 1259252); note: nearly all actives have a fitted effect of over 35% in size; note: potency is the fitted concentration of half-maximal effect;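 for viability (percent of control): 100% = DMSO-treated cells and 0% = medium-only wells without cells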
# In short: (§1)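 Measured: ATP luminescence (CellTiter-Glo) 10 min after reagent addition, following 48 h drug treatment. Relative luciferase units converted to percent activity, with no-cell wells as full and DMSO wells as zero inhibition.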
# [2] = qHTS Screen of the MIPE 4.0 Collection Against Ewings Sarcoma (EW8) (AID 1259255); note: nearly all actives have a fitted effect of over 35% in size; note: potency is the fitted concentration of half-maximal effect;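 for viability: 100% = DMSO-treated cells and 0% = medium-only wells without cells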
# In short: as §1
# [3] = qHTS Screen of the MIPE 4.0 Collection Against Ewings Sarcoma (TC32) (AID 1259256); note: potency is the fitted concentration of half-maximal effect; nearly all actives have a fitted effect of over 45% in size
# In short: as §1
# [4] = Identifying Small Molecule Inhibitors of Pancreatic Cancer Stem Cells (A2780, Spheroid) (AID 1259357); details: Potency: A2780 spheroid viability; viability (percent of control): at 46.1 µM (top of the series);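 note: compound exposure lasted 48 h before the ATP luminescence read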; note: potency is the fitted concentration of half-maximal effect;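 for viability (percent of control): 100% = DMSO treated cells and 0% = wells without cells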
# In short: (§2)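 Monolayer and spheroid cultures are compared. Spheroids form over 14 days in stem cell medium on hydrogel-coated low-attachment plates, then are exposed to compound for 48 h before CellTiter-Glo luminescence.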
# [5] = Identifying Small Molecule Inhibitors of Pancreatic Cancer Stem Cells (Panc1, Spheroid) (AID 1259359); details: Panc1 spheroid cancer stem cell viability; viability, % of control: at 46.1 µM (top of the series);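 note: potency is the fitted concentration of half-maximal effect; compound exposure lasted 48 h before reading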
# In short: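 Adherent (2D) versus sphere (3D) formats; spheres generated 14 d in SCM beforehand. Compound transferred by pin tool after 4 h, 48 h incubation, CellTiter-Glo endpoint.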
# [6] = Identifying Small Molecule Inhibitors of Pancreatic Cancer Stem Cells (Panc1, Adherent) (AID 1259362); details: Potency: viability; viability, % of control: at 46.1 µM (top of the series); note: potency is the fitted concentration of half-maximal effect;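 for viability, % of control: compound exposure lasted 48 h before the viability read; plate controls were DMSO-treated cells for no effect and cell-free media wells for full effect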
# In short: (§3)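 After a 4 h attachment period, compounds were pinned into wells and cultures held 48 h under standard incubator conditions. Viability was then measured as CellTiter-Glo luminescence following 10 min at room temperature.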
# [7] = P-glycoprotein substrates identified in KB-8-5-11 adenocarcinoma cell line, qHTS therapeutic library screen (AID 1346987); note: nearly all actives have a fitted effect of over 65% in size; note: potency is the fitted concentration of half-maximal effect
# In short: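 Steps: plate 500 KB-8-5-11 cells/well in DMEM + 10% FCS (colchicine removed); pin compounds in dose-response; incubate 72 h, 37 degree C, 5% CO2; add CellTiter-Glo, 5 min; read luminescence.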
# [8] = qHTS Assay for Identifying Gametocytocidal Compounds (AID 743244); note: potency is the fitted concentration of half-maximal effect; details: P. falciparum 3D7 stage III-V gametocytes, alamarBlue, 72 h; max response: stronger effect = lower value
# In short: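 3D7 gametocytes, stages III–V, 20,000/well; cpd 72 h, 37 °C/5% CO2; + alamarBlue 24 h; fluor. Ex 525/Em 598.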
# [9] = qHTS assay to identify small molecule inhibitors of chordoma cells - UCH-1 (AID 1259355); note: potency is the fitted concentration of half-maximal effect; nearly all actives have a fitted effect of over 55% in size
# In short: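 Luminescent ATP read-out (CellTiter-Glo, 30min at room temperature) measured viability of UCH-1 cells exposed for 48hr to test drugs at 15 concentrations, co-dosed with a five-agent combination of auranofin, camptothecin, doxorubicin, rubitecan and topotecan.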
# [10] = target: Atrial natriuretic peptide receptor 2 (Homo sapiens) (UniProt P20594); test: Natriuretic polypeptide receptor (hNpr2) antagonism - Pilot subtype selectivity assay (AID 1347050; calls by dose curve; note: potency is the fitted concentration of half-maximal effect)
# Chain of UniProt P20594 (P20594 whole entry, looked up): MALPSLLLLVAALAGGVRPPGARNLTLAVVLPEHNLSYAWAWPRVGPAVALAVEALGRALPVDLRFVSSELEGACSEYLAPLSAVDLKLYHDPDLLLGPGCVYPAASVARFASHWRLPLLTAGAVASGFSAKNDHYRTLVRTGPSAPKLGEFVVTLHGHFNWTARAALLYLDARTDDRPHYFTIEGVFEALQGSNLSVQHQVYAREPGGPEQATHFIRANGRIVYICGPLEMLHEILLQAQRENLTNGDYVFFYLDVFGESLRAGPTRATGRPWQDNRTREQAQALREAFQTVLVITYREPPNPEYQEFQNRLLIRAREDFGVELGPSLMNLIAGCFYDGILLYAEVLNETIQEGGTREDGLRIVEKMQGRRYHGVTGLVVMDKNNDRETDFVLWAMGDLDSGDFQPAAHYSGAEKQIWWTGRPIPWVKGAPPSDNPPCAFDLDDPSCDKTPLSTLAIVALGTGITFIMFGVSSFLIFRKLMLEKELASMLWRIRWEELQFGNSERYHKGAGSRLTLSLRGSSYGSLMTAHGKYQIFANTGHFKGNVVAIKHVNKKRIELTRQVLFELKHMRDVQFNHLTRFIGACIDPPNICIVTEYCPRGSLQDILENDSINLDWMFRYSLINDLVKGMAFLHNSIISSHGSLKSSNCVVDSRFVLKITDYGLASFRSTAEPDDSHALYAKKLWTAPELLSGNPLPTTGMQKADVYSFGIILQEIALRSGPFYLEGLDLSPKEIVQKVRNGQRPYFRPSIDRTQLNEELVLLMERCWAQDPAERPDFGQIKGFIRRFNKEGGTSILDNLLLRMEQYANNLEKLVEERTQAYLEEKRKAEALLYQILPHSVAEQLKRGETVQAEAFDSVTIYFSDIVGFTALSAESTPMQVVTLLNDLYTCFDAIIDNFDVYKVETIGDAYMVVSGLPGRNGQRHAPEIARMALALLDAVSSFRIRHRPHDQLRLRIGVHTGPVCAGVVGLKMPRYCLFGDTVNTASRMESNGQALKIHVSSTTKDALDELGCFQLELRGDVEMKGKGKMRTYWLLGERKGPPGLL
# In short: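 cGMP-sensor HEK293/hNpr2 cells; 2% GloSensor reagent 2 h RT; compounds 30 min; baseline luminescence read; 1 nM hNppC agonist 20 min RT; final luminescence read by CCD camera. Antagonism = reduced post-agonist signal.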
# [11] = Identifying Small Molecule Inhibitors of Pancreatic Cancer Stem Cells (SN12C, Spheroid) (AID 1259360); details: Potency: SN12C spheroid viability; note: potency is the fitted concentration of half-maximal effect
# In short: as §2
# [12] = Identifying Small Molecule Inhibitors of Pancreatic Cancer Stem Cells (A278, Adherent) (AID 1259361); details: viability (% of control): at 46.1 µM (top of the series);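 note: viability read after 48 h compound exposure; nearly all actives have a fitted effect of over 35% in size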
# In short: as §3
# [13] = P-glycoprotein substrates identified in KB-3-1 adenocarcinoma cell line, qHTS therapeutic library screen (AID 1346986);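 note: potency is the fitted concentration of half-maximal effect; potency is for cytotoxicity meaning loss of cell viability; nearly all actives have a fitted effect of over 60% in size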
# In short: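 Resistance attributable to P-gp was assessed by comparing AC50 in KB-8-5-11 with parental KB-3-1 and by tariquidar reversal. Cells were exposed 72 h and viability read by CellTiter-Glo.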
# [14] = Natriuretic polypeptide receptor (hNpr1) antagonism - Pilot counterscreen GloSensor control cell line (AID 1347045; calls by dose curve; note: potency is the fitted concentration of half-maximal effect)
# In short: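 Luminescence was read before and 20 min after adding 50 uM SNP, which stimulates soluble guanylyl cyclase. The HEK293 cells expressing the GloSensor cGMP sensor had been preloaded with 2% reagent for 2 h and treated with compound.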
# Tags give direction and shape of the fitted curve.
compound,measurement,setting,value
CCC(=O)N[C@H]1CC[C@H](C(=O)N(C)c2ccc(-c3nc4ccccc4o3)cc2)C1,Potency,[1],"inconclusive: 4.18 µM [inhibitor, full curve]"
same,Potency,[2],"inconclusive: 23.5 µM [inhibitor, partial curve]"
same,Potency,[3],"inconclusive: 16.6 µM [inhibitor, partial curve]"
same,Potency,[4],active: 14.8 µM
same,Potency,[5],active: 3.72 µM
same,Potency,[6],"inconclusive: 33.2 nM [cytotoxic, full curve, poor fit]"
same,Potency,[7],"inconclusive: 16.6 µM [inhibitor, partial curve]"
COc1ccc2c(c1)CC[C@H]1[C@@H]2CC[C@]2(C)[C@@H](NCCCCCCN3C(=O)C=CC3=O)CC[C@H]12,Potency,[1],"inconclusive: 13.2 µM [inhibitor, partial curve, poor fit]"
same,Potency,[2],inactive
same,Potency,[3],"inconclusive: 4.69 µM [inhibitor, full curve, poor fit]"
same,viability (percent of control),[4],inconclusive: 92.2%
same,Potency,[5],"inconclusive: 23.5 µM [cytotoxic, partial curve, poor fit]"
same,Potency,[6],inactive
CN1CCC(=C2c3ccccc3C=Cc3ccccc32)CC1,Potency,[8],"inconclusive: 28.2 µM [inhibitor, single point] and inconclusive: 794 nM [inhibitor, full curve]"
same,Potency,[1],active: 9.35 µM
same,Potency,[2],"inconclusive: 23.5 µM [inhibitor, partial curve]"
same,Potency,[3],"inconclusive: 18.7 µM [inhibitor, partial curve]"
same,Potency,[9],"inconclusive: 398 nM [cytotoxic, partial curve, poor fit]"
same,Potency,[7],"inconclusive: 20.6 µM [inhibitor, single point] and inconclusive: 16.6 µM [inhibitor, partial curve]"
same,Potency,[10],active: 11.7 µM
COc1cc(N2CCC(N3CCN(C)CC3)CC2)ccc1Nc1ncc(Cl)c(Nc2ccccc2S(=O)(=O)C(C)C)n1,Potency,[8],active: 4.69 µM
same,Potency,[1],"inconclusive: 20.9 µM [inhibitor, partial curve, poor fit]"
same,Potency,[2],"inconclusive: 3.72 µM [inhibitor, full curve, poor fit]"
same,Potency,[3],"inconclusive: 3.32 µM [inhibitor, full curve, poor fit]"
same,Potency,[4],"inconclusive: 0.0372 µM [rising, full curve, poor fit]"
same,Potency,[6],"inconclusive: 16600 nM [cytotoxic, partial curve, poor fit]"
same,Potency,[7],"inconclusive: 0.418 µM [inhibitor, full curve, poor fit]"
CN1C(=O)C[C@H](C(=O)N[C@@H](Cc2cnc[nH]2)C(=O)N2CCC[C@@H]2C(N)=O)NC1=O,Potency,[1],active: 20.9 µM
same,Potency,[2],"inconclusive: 29.6 µM [inhibitor, single point]"
same,Potency,[3],"inconclusive: 33.2 µM [inhibitor, single point]"
O=C(NC1CC1)c1cccc(-c2ccc3c(NC(=O)C4CC4)n[nH]c3c2)c1,Potency,[1],active: 1.32 µM
same,Potency,[2],active: 3.72 µM
same,Potency,[3],active: 1.32 µM
CN(C)C1CCN(C(=O)c2ccc(NC(=O)Nc3nc(N4CCOCC4)nc(N4CCOCC4)n3)cc2)CC1,Potency,[8],active: 23.5 µM
same,Potency,[1],"inconclusive: 0.0166 µM [inhibitor, full curve]"
same,Potency,[2],"inconclusive: 0.0132 µM [inhibitor, full curve]"
same,Potency,[3],"inconclusive: 0.0074 µM [inhibitor, full curve]"
same,Potency,[4],"inconclusive: 0.743 µM [cytotoxic, full curve]"
same,Potency,[5],"inconclusive: 0.332 µM [cytotoxic, full curve]"
same,Potency,[11],"inconclusive: 118 nM [cytotoxic, full curve]"
same,Potency,[6],"inconclusive: 105 nM [cytotoxic, full curve, poor fit]"
Cc1cccc(-c2[nH]c(C(C)(C)C)nc2-c2ccc3nccnc3c2)n1,Potency,[1],active: 16.6 µM
same,Potency,[2],active: 23.5 µM
same,Potency,[4],"inconclusive: 23.5 µM [cytotoxic, partial curve, poor fit]"
same,Potency,[5],active: 8.33 µM
same,IC50 (viability decrease),[12],"inconclusive: 4.69 µM [cytotoxic, full curve]"
same,Potency,[6],inactive
same,Potency,[13],active: 3.26 µM
same,Potency,[7],"inconclusive: 14.8 µM [inhibitor, partial curve] and active: 8.2 µM"
CNC[C@H](O)c1cccc(O)c1,Potency,[1],inactive
same,Potency,[2],inactive
same,Potency,[7],inactive
O=C(NCc1ccncc1)C12C[C@H]3C[C@@H](C1)CC(c1ccc(Cl)cc1)(C3)C2,Potency,[1],"inconclusive: 33.2 µM [inhibitor, single point]"
same,Potency,[2],"inconclusive: 33.2 µM [inhibitor, single point]"
same,Potency,[3],"inconclusive: 33.2 µM [inhibitor, single point]"
same,Potency,[7],inactive
Clc1ccccc1C(c1ccccc1)(c1ccccc1)n1ccnc1,Potency,[8],active: 2.51 µM and active: 2.09 µM
same,Potency,[1],"inconclusive: 23.5 µM [inhibitor, single point]"
same,Potency,[2],"inconclusive: 23.5 µM [inhibitor, partial curve]"
same,Potency,[3],"inconclusive: 13.2 µM [inhibitor, partial curve, poor fit]"
same,Potency,[7],"inconclusive: 23.5 µM [inhibitor, single point]"
same,Potency,[14],"inconclusive: 13.1 µM [inhibitor, single point]"
